# Data from PubChem BioAssay (NCATS).
# The shares of active, inactive and inconclusive entries below differ from those in the screen. Potencies beside an inconclusive call are fits to weak or partial responses and may not hold up. Active and inactive are the calls of the source. Calls follow the shape of the dose curve; as a rule, active = well fitted inhibition curve with a large enough effect; inconclusive = small, poorly fitted or top-dose-only effect; inactive = no such curve, though single readings can be large or run the other way.
# Target: Retinaldehyde dehydrogenase 3 (Homo sapiens) (UniProt P47895)
# Test: qHTS for Inhibitors of the Aldehyde Dehydrogenase Family (ALDH1A3) Confirmatory screens (AID 2061311); also: nearly all actives have a fitted effect of over 60% in size
# Settings: ALDH inhibition qHTS; activity change, negative = inhibition: at 46 µM (top of the series); series mostly up to 46 µM
# % is scaled to controls: 0 for no effect and ±100 for the full control effect; potency is read from the fitted curve at half-maximal effect; tags tell the direction and shape of the fitted curve.
Compound,Potency,outcome,"activity change, negative = inhibition"
COc1cc(/C=C/C(=O)O[C@H]2[C@H](OC(=O)/C=C/c3cc(OC)c(O)c(OC)c3)O[C@H](CO[C@@H]3O[C@H](CO)[C@@H](O)[C@H](O)[C@H]3O)[C@@H](O)[C@@H]2O)ccc1O,"inconclusive: 10.6 µM [inhibitor, single point]",–,–
O=S1(=O)N=C(Oc2ccccc2F)c2ccccc21,"inconclusive: 28.3 µM [inhibitor, partial curve, poor fit]",–,–
NC(=O)c1ccc(C[C@H](C(=O)O)N2C(=O)c3ccc(C(=O)O)cc3C2=O)cc1,–,inactive,–
CCOc1ccc(-c2cc(C(=O)NCCc3ccc(C)cc3)c3ccccc3n2)cc1,"inconclusive: 11.2 µM [inhibitor, full curve, poor fit]",–,–
Cc1ccc(-n2nc(C)c3c(C(=O)Nc4ccc(Br)c(C)c4)cc(C)nc32)cc1,–,–,inactive: 2.85%
COc1cccc(CCC(=O)NCCc2nc3ccccc3n2CCOc2ccc(C)cc2)c1,"inconclusive: 15.9 µM [inhibitor, partial curve, poor fit]",–,–
CC(C)=C1CC2C(CCC2(C)O)C(C)(O)CC1=O (stereo not drawn),"inconclusive: 12.7 µM [inhibitor, partial curve]",–,–
O=C(O)c1ccc2c(c1)C(=O)N([C@H](Cc1ccc(F)cc1)C(=O)O)C2=O,–,–,inactive: 0.992%
O=C1C(c2c(O)[nH]c3ccccc23)=Nc2ccccc21,–,–,inactive: -10.5%
Cc1nc(C)c(-c2ccc3ncnc(NCc4ncc[nH]4)c3c2)s1,–,–,inactive: -12.8%
CCN(CC)c1cc2c(cc1S(=O)(=O)Nc1ccc(C)c(C)c1)CCC(=O)N2,"inconclusive: 31.8 µM [inhibitor, partial curve, poor fit]",–,–
Cc1ccc(CSc2ccc3nnc(CCNS(=O)(=O)c4ccc(C)cc4)n3n2)cc1,"inconclusive: 0.708 µM [inhibitor, full curve, poor fit]",–,–
NC(=O)C1CCN(c2nc(-c3ccc4occc(=O)c4c3)cs2)CC1,"inconclusive: 39.8 µM [inhibitor, partial curve, poor fit]",–,–
CCCc1nnc(-c2cnn(C)c2N)n1CCCn1ccnc1,"inconclusive: 11.3 µM [inhibitor, partial curve, poor fit]",–,–
CC(=O)SCC(CC(=O)c1ccc(C)cc1)C(=O)O (stereo not drawn),–,–,inactive: 4.93%
NCCCCN(Cc1nc2ccccc2[nH]1)[C@H]1CCCc2cccnc21,"inconclusive: 6.93 µM [inhibitor, partial curve, poor fit]",–,–
O=C(Nc1cc(C(F)(F)F)cc(C(F)(F)F)c1)c1cnc(Cl)nc1C(F)(F)F,–,–,inactive: 2.43%

Compound,Potency,outcome,"activity change, negative = inhibition"
COc1ccc(CNC(=O)c2cc3c(=O)n(Cc4ccc(OC)cc4)ccc3nc2C)cc1,–,–,inactive: -3.19%
COc1ccc(C2=Nn3c(nnc3-c3cc(OC)cc(OC)c3)SC2)cc1,–,–,inactive: -6.9%
CC(=O)c1ccc(NC(=O)c2cc(-c3ccc(C)s3)nc3ccccc23)cc1,"inconclusive: 18.2 µM [inhibitor, partial curve]",–,–
COc1ccc2c(c1)c(C(=O)CN(C)C)c(C)n2C,–,–,inactive: 1.06%
COc1cc(CC2COC(c3ccc(OC4OC(CO)C(O)C(O)C4O)c(OC)c3)C2CO)ccc1O (stereo not drawn),active: 11 µM,–,–
Cn1cc(Nc2cnccc2C(=O)O)c2cccnc21,–,–,inactive: -0.928%
NC1CCN(c2cnc3c(O)ccc(C(=O)O)c3c2)CC1,active: 20.1 µM,–,–
C=CC(=O)Nc1cccc(Nc2nc(Nc3ccc(Oc4ccnc(C(=O)NC)c4)cc3)ncc2F)c1,–,–,inactive: -2.7%
COc1cccc(-c2no[n+]([O-])c2C#N)c1,–,–,inactive: -17.2%
CCOC(=O)c1c(C)n(-c2ccc(OC)cc2)c2ccc(OC(=O)COc3ccccc3)cc12,–,–,inactive: 8.76%
COc1cccc(OC)c1C1=Nn2c(nnc2-c2ccccc2C)SC1,"inconclusive: 20.1 µM [inhibitor, partial curve, poor fit]",–,–
Cc1ccc(OCCn2c(CCNC(=O)c3cccc(Cl)c3)nc3ccccc32)cc1,–,–,inactive: -4.94%
C[C@@H]1O[C@@H](O[C@H]2[C@H](O[C@H]3CO[C@@H](O[C@H]4CC[C@@]5(C)C(CC[C@]6(C)C5CC[C@]57OC[C@@]8(CC[C@](C)(CO)CC85)[C@H](O)C[C@]76C)C4(C)C)[C@H](O[C@@H]4O[C@H](CO)[C@@H](O)[C@H](O)[C@H]4O)[C@H]3O)O[C@H](CO)[C@@H](O)[C@@H]2O)[C@H](O)[C@H](O)[C@H]1O (stereo partly drawn),"inconclusive: 6.76 µM [inhibitor, partial curve, poor fit]",–,–
O=C(OCC1=C[C@@H](O)[C@@H]2C=CO[C@@H](O[C@@H]3O[C@H](CO)[C@@H](O)[C@H](O)[C@H]3O)[C@H]12)c1ccc(O)cc1,"inconclusive: 12.3 µM [inhibitor, partial curve]",–,–
CC1(C)C[C@H]2C=C(C=O)[C@]3(C(=O)O)C[C@]3(C)[C@H]2C1,–,–,inactive: -14.8%
O=C(NC1CCCc2c1cnn2-c1ccc(F)cc1F)c1ccncc1 (stereo not drawn),–,–,inactive: -16.6%
